Data reported in PMC6919601, “Identification of Plasmodium dipeptidyl aminopeptidase allosteric inhibitors by high throughput screening” (PLoS ONE, 2019).
Out of some 110,000 compounds screened, about 230 (0.21%) showed an effect of 50% or more. The list shows a part of the results.

Molecular target: DPAP1 (Plasmodium falciparum, UniProt Q8IIJ9)
Assay: primary screen, percent inhibition; read by cleavage of a fluorogenic dipeptide substrate; higher = more effect of the substance
Set-up: species or system P. falciparum D10 trophozoite lysates; single well
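Note: 30 min substrate incubation versus DMSO and 10 µM JCP410 controls.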

Chain of DPAP1 (Q8IIJ9 whole entry, looked up): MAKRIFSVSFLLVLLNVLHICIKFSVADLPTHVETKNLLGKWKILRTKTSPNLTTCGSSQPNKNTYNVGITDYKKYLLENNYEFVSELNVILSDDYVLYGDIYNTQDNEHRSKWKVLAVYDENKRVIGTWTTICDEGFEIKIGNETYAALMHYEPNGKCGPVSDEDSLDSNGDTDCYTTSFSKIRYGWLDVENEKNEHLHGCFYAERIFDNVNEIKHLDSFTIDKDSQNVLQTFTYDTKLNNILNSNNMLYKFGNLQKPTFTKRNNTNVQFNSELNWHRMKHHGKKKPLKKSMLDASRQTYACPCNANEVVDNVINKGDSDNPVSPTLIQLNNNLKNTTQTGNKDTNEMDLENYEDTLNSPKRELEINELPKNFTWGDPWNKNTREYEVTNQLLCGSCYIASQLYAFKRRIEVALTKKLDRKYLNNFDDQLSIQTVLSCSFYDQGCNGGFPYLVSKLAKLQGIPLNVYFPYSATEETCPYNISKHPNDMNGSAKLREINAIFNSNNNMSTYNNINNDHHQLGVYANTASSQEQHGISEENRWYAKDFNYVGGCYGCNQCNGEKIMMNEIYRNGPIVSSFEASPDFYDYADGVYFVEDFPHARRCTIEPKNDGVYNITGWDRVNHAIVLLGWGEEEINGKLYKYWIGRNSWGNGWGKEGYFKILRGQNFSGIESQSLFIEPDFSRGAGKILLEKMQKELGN

Going from `CCCC(=O)Nc1nnc(S(=O)(=O)N(CC)CC)s1` to `CCOC(=O)c1c(NC(=O)CN(CC)CC)sc2c1CCCC2`, the “% Inhibition @ 10 uM” value falls from 0.00665% to -1.29%.

First: CCOc1ccc(Oc2nc(N(C)C)nc(N3CCCC3)n2)nn1
Second: NC(=O)C1CCN(S(=O)(=O)c2ccc3nc(O)ccc3c2)CC1
The “% Inhibition @ 10 uM” value of the first is higher: 2.05% for the first, -2.7% for the second.

First: COc1ccc2[nH]c3c(=O)n(CCCCCC(=O)NCCCN4CCCCC4)c(=S)[nH]c3c2c1
Second: COC(=O)c1cc2c(=O)n3cccc(C)c3nc2n(C2CCCCC2)c1=N
The “% Inhibition @ 10 uM” value of the first is higher: 30.2% for the first, 0.279% for the second.

Going from `COc1ccc(CC(=O)Nc2cccc3c2CCCC3)cc1` to `O=C(COc1ccc(Br)cc1)N1CCN(c2ccccc2F)CC1`, the “% Inhibition @ 10 uM” value falls from 3.74% to -11.1%.

Compared with `CNc1ccc(Nc2ccc(C)cc2)c2c1C(=O)c1ccccc1C2=O`, `CC(=O)Nc1ccc(N2C(=O)C3C4c5ccccc5C(c5ccccc54)C3C2=O)cc1` (stereo not drawn) is lower in “% Inhibition @ 10 uM” value: -2% for the first, -4.96% for the second.

Compared with `O=C(C1CCCCC1)N1CC(=O)N(CCc2ccccc2)C(=O)C1`, `CC1CC(C)CN(C(=O)CN2N=C(c3ccccc3)CCC2=O)C1` (stereo not drawn) is higher in “% Inhibition @ 10 uM” value: -1.69% for the first, 5.35% for the second.

Going from `CN(C(=O)COCc1cc(-c2ccc(F)cc2)on1)C1CCCCC1` to `CC1=C(C(=O)OCC2CCCCC2)C(c2ccc(Cl)cc2Cl)NC(=O)N1` (stereo not drawn), the “% Inhibition @ 10 uM” value falls from 5.05% to 2.92%.

Compared with `Cn1c(=O)c2ncn(CC(=O)Nc3ccccc3C(F)(F)F)c2n(C)c1=O`, `Cc1c(Br)c(C(F)(F)F)nn1CC(=O)NCc1ccccc1` is higher in “% Inhibition @ 10 uM” value: -11.7% for the first, 2.65% for the second.

Compared with `Cc1ccccc1CSCc1ccc(C(=O)NCc2cccnc2)o1`, `O=C(Nc1ccc(Cl)nc1)c1ccc(Oc2ccccc2)cc1` is lower in “% Inhibition @ 10 uM” value: 1.62% for the first, -4.49% for the second.

Going from `COc1ccc(N(CC(=O)Nc2ccc(C)c(Cl)c2)S(C)(=O)=O)c(OC)c1` to `Cc1cc(C)c(S(=O)(=O)NCC(=O)Nc2ccc(C)c(C)c2)c(C)c1`, the “% Inhibition @ 10 uM” value rises from -5.67% to -4.82%.

First: CC(C)NC(=O)CCCc1cn(Cc2ccc(F)cc2)c2ccccc12
Second: CCCCNC(=O)Cn1nc(-c2ccccc2)ccc1=O
The “% Inhibition @ 10 uM” value of the first is higher: -0.0401% for the first, -3.22% for the second.

Going from `N#CC1=C(N)Oc2[nH]nc(-c3ccccc3Cl)c2C1c1ccc(F)cc1` (stereo not drawn) to `Cc1ccc(-c2[nH]nc3c2C(c2ccc(N4CCOCC4)cc2)C(C#N)=C(N)O3)cc1` (stereo not drawn), the “% Inhibition @ 10 uM” value falls from 1.03% to -2.83%.

Going from `C=CCN(CC=C)Cc1c(O)ccc2oc(C)c(C(=O)NC3CCCCC3)c12` to `CCCCNC(=O)CNC(=S)N(Cc1cc(OC)c(OC)c(OC)c1)C1CCCC1`, the “% Inhibition @ 10 uM” value falls from 2.14% to -0.406%.

For `CN1C(=O)/C(=C\c2ccc(C(=O)O)cc2)S/C1=N\c1ccccc1`, the “% Inhibition @ 10 uM” value was 4.96%.
